Measured values published in the CheMixHub viscosity set.

| Structure (SMILES) | viscosity (293.15 K, 101 kPa) | viscosity (298.15 K, 101 kPa) | viscosity (303.15 K, 101 kPa) | viscosity (308.15 K, 101 kPa) | viscosity (313.15 K, 101 kPa) | viscosity (303.15 K, 100 kPa) | viscosity (308.15 K, 100 kPa) | viscosity (313.15 K, 100 kPa) | viscosity (318.15 K, 100 kPa) |
| --- | --- | --- | --- | --- | --- | --- | --- | --- | --- |
| CCCCOCCO | 3.187 ± 0.029 mPa·s [study A] and 3.239 ± 0.083 mPa·s [study B] and 3.239 ± 0.029 mPa·s [study C] and 3.239 ± 0.02 mPa·s [study D] | 2.792 ± 0.021 mPa·s [study A] and 2.825 ± 0.072 mPa·s [study B] and 2.795 ± 0.021 mPa·s [study C] and 2.825 ± 0.017 mPa·s [study D] and 2.825 ± 0.032 mPa·s [study E] | 2.449 ± 0.063 mPa·s, 2.449 ± 0.024 mPa·s, 2.449 ± 0.015 mPa·s, 2.823 ± 0.72 mPa·s (2×), 2.823 ± 0.051 mPa·s, 2.403 ± 0.24 mPa·s, 2.404 ± 0.055 mPa·s, 2.411 ± 0.028 mPa·s, 2.428 ± 0.098 mPa·s, 2.446 ± 0.022 mPa·s [several studies] | 2.29 ± 0.052 mPa·s [study A] and 2.279 ± 0.092 mPa·s [study B] and 2.079 ± 0.022 mPa·s [study C] and 2.288 ± 0.23 mPa·s [study D] | 2.12 ± 0.049 mPa·s [study A] and 2.121 ± 0.086 mPa·s [study B] and 1.93 ± 0.017 mPa·s [study C] and 1.689 ± 0.02 mPa·s [study D] and 2.119 ± 0.21 mPa·s [study E] | – | – | – | – |
| CNC=O | – | – | – | – | – | 1.585 mPa·s [study A] and 1.585 ± 0.061 mPa·s [study B] and 1.585 ± 0.036 mPa·s [study C] | 1.462 mPa·s [study A] and 1.462 ± 0.061 mPa·s [study B] and 1.462 ± 0.034 mPa·s [study C] | 1.352 mPa·s [study A] and 1.352 ± 0.061 mPa·s [study B] and 1.352 ± 0.031 mPa·s [study C] | 1.255 mPa·s [study A] and 1.255 ± 0.06 mPa·s [study B] |

± gives the uncertainty stated by the source. Some entries of the source have several records that differ or are many. This list holds those alone. An entry can have further records. Results that share an entry are repeats across runs, samples, wells, individuals or studies. Records carry a tag for their origin. Letters hold for one entry only. Additions like (4×) stand for listed records that agree.
